Data published in the supplement of paper PMC12217912.
Some of the results follow. The full chains were built here from the parent and the listed change. Inactive controls read about 0.05.

B1: TEV protease; numbered along this chain (parent)
chain: MGESLFKGPRDYNPISSSICHLTNESDGHTTSLYGIGFGPFIITNKHLFRRNNGTLVVQSLHGVFKVKDTTTLQQHLVDGRDMIIIRMPKDFPPFPQKLKFREPQREERICLVTTNFQTKSMSSMVSDTSCTFPSGDGIFWKHWIQTKDGQCGSPLVSTRDGFIVGIHSASNFTNTNNYFTSVPKNFMELLTNQEAQQWVSGWRLNADSVLWGGHKVFMVKPEEPFQPVKEATQL

Variants of: B1
Experiment: raw area under fraction-flipped curve 0-4 h after induction (AUC4h, not background-subtracted), DNA-recorder readout of cleavage of the substrate (dimensionless); higher = more cleavage of the substrate by the protease variant
Settings: temperature: 34 °C; time window: 0-4 h after rhamnose induction
Procedure: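 In vivo DNA recorder in E. coli TOP10(DE3) ΔrhaA at 34 °C. Each TEVp single-site mutant (parent TEVp 0) is paired with a single-site variant of the 7-mer TEVs (canonical ENLYFQ|S). The substrate sits between flexible linkers in a Bxb1-sfGFP-TEVs-SsrA fusion, so cleavage stabilises Bxb1 and speeds flipping of a recombination array, read by NGS. The value is the raw area under the fraction-flipped curve over 0-4 h after rhamnose induction (AUC4h), with ≥20 reads per time point. It is not background-subtracted; inactive controls average about 0.047.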
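Note: Bxb1 expression induced with 0.2% (w/v) L-rhamnose at OD600 near 0.5, cultures sampled hourly, flipped fraction per protease–substrate barcode pair counted by paired-end Illumina sequencing.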

Row | Variant | area with substrate ENAYFQS | area with substrate ENDYFQS | area with substrate ENEYFQS | area with substrate ENFYFQS | area with substrate ENIYFQS | area with substrate ENNYFQS | area with substrate ENSYFQS | area with substrate ENVYFQS | area with substrate ENWYFQS | area with substrate ENGYFQS | area with substrate ENHYFQS | area with substrate ENPYFQS | area with substrate ENRYFQS | area with substrate ENYYFQS | area with substrate ENKYFQS | area with substrate ENMYFQS | area with substrate ENQYFQS | area with substrate ENCYFQS | area with substrate ENTYFQS
1 | L205V | 0.0643 | 0.0591 | 0.0795 | 0.0718 | 0.0909 | 0.0573 | 0.0476 | 0.0688 | 0.0535 | – | – | – | – | – | – | – | – | – | –
2 | A207C | 0.0474 | 0.0651 | 0.0609 | – | – | – | 0.0592 | 0.0864 | 0.0502 | 0.0723 | 0.0478 | 0.0641 | 0.0576 | 0.0547 | – | – | – | – | –
3 | A207I | 0.0599 | – | 0.0841 | – | – | 0.0591 | – | – | – | 0.0643 | – | – | 0.0658 | – | 0.0509 | 0.0659 | 0.0506 | – | –
4 | A207M | 0.0663 | 0.0553 | – | – | – | – | 0.0607 | 0.0759 | – | – | – | 0.0484 | – | 0.0496 | – | – | 0.0578 | – | –
5 | D208C | 0.0587 | 0.045 | 0.0636 | 0.0848 | 0.0623 | 0.0569 | 0.0611 | 0.0622 | – | – | – | 0.0657 | 0.056 | – | 0.0627 | – | 0.0655 | 0.0528 | 0.0568
6 | D208F | 0.038 | 0.0595 | 0.0667 | 0.0691 | 0.0679 | – | 0.0613 | 0.0544 | – | 0.065 | – | 0.0819 | 0.041 | 0.0466 | 0.0605 | 0.0656 | 0.0661 | 0.0607 | 0.0708
7 | D208I | 0.074 | 0.0493 | 0.0581 | – | 0.083 | 0.0666 | 0.0531 | 0.0654 | 0.0613 | 0.0608 | 0.0584 | 0.0525 | 0.0606 | 0.0629 | 0.0701 | – | 0.0506 | 0.0655 | 0.0586
8 | D208M | 0.0655 | 0.0605 | 0.0393 | – | – | 0.0674 | 0.0647 | 0.0641 | – | 0.0614 | 0.0696 | 0.0764 | – | 0.0561 | – | 0.0683 | 0.0565 | – | 0.0613
9 | D208R | 0.0687 | 0.0465 | 0.0642 | 0.0475 | – | 0.0525 | 0.0602 | – | – | 0.0593 | 0.0544 | – | 0.0527 | – | 0.0691 | 0.0592 | 0.0821 | 0.0553 | –
10 | D208T | 0.0705 | 0.0676 | 0.0652 | – | – | 0.0538 | 0.0528 | – | – | 0.0596 | – | – | 0.0522 | 0.0552 | 0.0578 | – | 0.0527 | 0.0665 | 0.0538
11 | D208W | 0.0504 | 0.062 | 0.0587 | 0.0525 | 0.12 | – | 0.0561 | 0.0638 | 0.0932 | 0.0602 | 0.0492 | – | – | 0.0635 | 0.0529 | – | 0.061 | 0.0655 | 0.0424
12 | S209P | 0.0504 | 0.0451 | – | 0.0588 | 0.0677 | – | – | 0.0546 | – | – | 0.0064 | 0.0678 | 0.0471 | 0.0583 | 0.0501 | – | 0.0582 | – | 0.0454
13 | V210Y | 0.0614 | – | 0.0633 | 0.0669 | 0.136 | 0.0677 | 0.0402 | 0.0185 | – | 0.0516 | 0.0799 | 0.0535 | 0.0544 | 0.0719 | – | 0.0686 | 0.0627 | 0.0545 | 0.0438
14 | W212E | 0.058 | 0.0691 | 0.0555 | 0.0566 | – | 0.0683 | 0.0786 | 0.0813 | – | – | 0.0489 | – | 0.0674 | – | – | – | 0.0652 | 0.0574 | 0.0676
